# Data reported in the supplement of paper PMC3334620.
# In all, about 33,000 sequences were measured (“E-score (-0.5 to 0.5)”: median about -0.032, highest 2% from about 0.36 on). The list shows a part of the results.
# Biological target: T1, Sko1 (UniProt Q02100)
# T1 sequence: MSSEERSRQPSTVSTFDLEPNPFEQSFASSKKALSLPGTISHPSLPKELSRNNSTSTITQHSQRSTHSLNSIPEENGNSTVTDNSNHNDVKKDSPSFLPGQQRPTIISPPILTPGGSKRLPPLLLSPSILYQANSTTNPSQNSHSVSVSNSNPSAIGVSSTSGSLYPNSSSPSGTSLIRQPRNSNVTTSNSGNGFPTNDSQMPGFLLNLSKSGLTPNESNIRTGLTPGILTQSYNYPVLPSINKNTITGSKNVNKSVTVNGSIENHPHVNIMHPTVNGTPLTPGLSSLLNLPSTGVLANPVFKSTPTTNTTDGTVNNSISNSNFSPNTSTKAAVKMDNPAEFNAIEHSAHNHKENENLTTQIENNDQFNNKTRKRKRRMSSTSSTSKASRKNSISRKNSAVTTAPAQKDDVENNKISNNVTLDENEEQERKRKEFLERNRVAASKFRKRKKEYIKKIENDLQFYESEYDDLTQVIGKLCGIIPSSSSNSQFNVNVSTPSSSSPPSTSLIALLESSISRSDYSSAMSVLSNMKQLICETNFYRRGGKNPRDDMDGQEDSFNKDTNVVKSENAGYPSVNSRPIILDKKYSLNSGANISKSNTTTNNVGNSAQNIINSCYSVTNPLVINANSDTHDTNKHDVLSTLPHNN
# Assay: PBM E-score (8-mer binding enrichment) (E-score (-0.5 to 0.5)); higher = stronger / more preferred TF binding; most listed sequences are background and not binding sites
# Settings: protein concentration: 200 nM; construct: GST-full length
# Experimental: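 Universal 'all 10-mer' protein binding microarrays (Agilent AMADID 015681) probed with GST-tagged S. cerevisiae TFs (full-length or DBD) made by in vitro transcription/translation (PURExpress), about 100-200 nM. Bound TF was detected with fluorescent anti-GST. Each ungapped 8-mer (which stands for itself and its reverse complement) is scored by the PBM enrichment score (E-score), a modified Wilcoxon-Mann-Whitney statistic from -0.5 to +0.5, computed with the Universal PBM Analysis Suite. Scale: above 0.35 generally sequence-specific binding.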
row,Sequence,PBM E-score
1,AAGTGTTG,0.204
2,CCCCTCCG,-0.168
3,AACGAACC,0.0276
4,TACAGTCA,0.192
5,CCAGTTGC,-0.17
6,TGCCCCCA,-0.204
7,TGAGAGCA,-0.0137
8,ACAGCGAA,-0.0485
9,ATCATTAA,0.239
10,AAATCTGT,0.0176
11,CAGTGTTC,-0.0083
12,ATCTCGTC,0.157
13,CCACTGCG,0.0633
14,AGCCCAAG,-0.135
15,AAAATAGT,0.0671
16,ACAAGCGA,0.109
17,GAGCGGCC,-0.195
18,CCTGATAC,0.0648
19,CAAGAGGC,-0.252
20,GATCTCTA,-0.051
21,CCTTCGAC,-0.123
22,CACGCTGC,-0.102
23,ACTTAACG,0.127
24,AGGTCCAC,-0.327
25,AAAGCGGT,-0.0789

row,Sequence,PBM E-score
1,ATGTTCGC,-0.0744
2,CACCTATG,-0.062
3,ACCTGTCA,-0.176
4,CATGTTCC,-0.105
5,GCGTGCTA,0.0352
6,CTGCTCTA,-0.058
7,ATAGATGG,-0.264
8,CGGCACGA,-0.0667
9,ACACCTAG,-0.225
10,CAATTATA,0.164
11,CGCCTTTA,0.137
12,CGGTAGTA,-0.0889
13,GCTTGTGA,-0.0445
14,CCAGTCTA,-0.255
15,ACGGGTGC,-0.207
16,GCTGCCTA,-0.13
17,AAATCTAC,0.178
18,CGCCAACA,-0.0268
19,CTTCTACA,0.00657
20,GCAGGGAA,-0.228
21,CTTGTAAA,0.107
22,AAAACCGT,0.0625
23,AGCTTCCT,0.0027
24,AATCGGAA,0.0262
25,GGGGAGGA,-0.00888

row,Sequence,PBM E-score
1,ATGGTTGG,0.00874
2,AGTAATGG,0.122
3,ATTTCGTG,0.224
4,AGGACCCG,-0.266
5,GAACCTTA,-0.00846
6,ATAGCCGA,0.0688
7,TCGTCCCA,-0.0134
8,AACGCAGT,0.0823
9,CTAACAGC,-0.165
10,CAGCCCTA,-0.0666
11,AATATATA,0.189
12,ATTTGTAA,0.155
13,GGGTTCAC,-0.0986
14,GAGTATCC,-0.251
15,ATGCTGTA,0.0153
16,CATAGACC,-0.0132
17,GGGATCTA,-0.138
18,ATGATCAG,0.08
19,CAGTAGTA,-0.0279
20,GAGTATCA,0.0179
21,TCGCATCA,0.267
22,ATGTGAAA,0.152
23,ACCACCAA,-0.228
24,ACAATTCT,0.142
25,AAGTGCTC,-0.102

row,Sequence,PBM E-score
1,CTCAGTGA,-0.0446
2,GCTGTAGA,-0.176
3,ATCCGCAT,0.115
4,CTAGAACC,-0.118
5,AAACTTGT,0.157
6,CGATCTCA,-0.156
7,GGGCCGAA,-0.241
8,CCCCGAGG,-0.347
9,CGGTTAGA,-0.144
10,ACGTTCTG,0.256
11,ACATTGCA,0.044
12,CATGAAGC,-0.134
13,AACGCCCG,-0.151
14,ACGCAATA,0.45
15,GATGGTCC,-0.0569
16,CCAGGACA,-0.284
17,TATGTTGA,0.0854
18,GACGTCCA,0.331
19,AGTCAAGG,-0.216
20,ACACTTAC,0.201
21,GCTCGAAC,0.156
22,GCGAGGAA,-0.045
23,GGCTCCAC,-0.348
24,AACAGAGG,-0.205
25,ACTCACAC,0.0487

row,Sequence,PBM E-score
1,GTCCAAAC,-0.0821
2,AAATAGAC,0.0131
3,GTACCATA,0.14
4,AGAGGTTG,-0.169
5,CGTACGTC,0.45
6,ATAAAGCG,0.141
7,AGTTCGCG,-0.0222
8,CCGTCCGC,-0.269
9,GATGAGAA,0.012
10,AAGCAACA,0.0352
11,CAGGGTGC,-0.361
12,GGCCCCGA,-0.19
13,GAACCAGA,-0.2
14,AGATAGAG,-0.0489
15,CAAGTTCC,-0.0324
16,ACTGTAAC,-0.01
17,ACGCATCA,0.308
18,CAGTTGAA,0.00732
19,AAGTAGCG,0.0298
20,CGGTCAAG,-0.243
21,ATGGCACC,-0.269
22,AGTTTTAC,0.0669
23,CTTGACCA,-0.297
24,CGCGTTGC,0.209
25,CGGGTGCC,-0.319

row,Sequence,PBM E-score
1,GGGGGTCA,-0.366
2,TGTTTGAA,0.107
3,AGAATTCG,0.0226
4,ACGTGGTG,0.376
5,GACGCGTC,0.275
6,CGGCTAAA,0.0623
7,AACATGCG,0.0748
8,CCTAACGA,0.0621
9,AAAAAGAT,0.0678
10,AGGAAGTA,-0.199
11,CTCCCCGC,0.0782
12,AGGATGCG,-0.0291
13,ACTAGAAG,-0.0995
14,GTTCCGTA,0.0787
15,GTATACCA,-0.0338
16,AAACACTA,0.196
17,AAAAGGGA,-0.218
18,CGCGTTGA,0.088
19,CCGAAGAC,-0.112
20,ATCCAGGC,-0.312
21,CTCTAGCC,-0.238
22,GGAAGCCC,-0.194
23,CTCGCCGC,-0.178
24,CGTAGAGA,0.154
25,AACCCGAG,-0.278

row,Sequence,PBM E-score
1,GGTCCCTA,-0.256
2,CGATATAC,0.0326
3,GCCCTCAA,-0.11
4,CTGTCGTA,0.282
5,ACCGGAGA,-0.156
6,GTTTTACA,0.0266
7,CTCTATTC,-0.141
8,GTAATGAC,0.399
9,ATCCACGC,-0.0735
10,ACGTGCTA,0.352
11,CACTGCGA,0.135
12,CTTCTCAA,-0.04
13,GTAAGAGA,0.143
14,AGGAGACA,0.0164
15,CTGGGTTC,-0.145
16,ACCTTTAT,-0.00087
17,GCGTACCC,-0.00205
18,CAATTCGC,0.11
19,GGCGGAGA,-0.188
20,GCATCGGC,-0.144
21,GTAGGTTA,0.148
22,GTCTAAGA,0.0886
